The results in this text go back to PubChem BioAssay AID485344 (National Center for Advancing Translational Sciences (NCATS), 2010).

Molecules are shown by their SMILES. In all, about 340,000 compounds went through this assay and about 6,900 (2%) were called active. Cut-off read from the data, not from the text of the source: active = inhibition above about 30%; inactive = below that, where a call was filed. This is a selection; strong and weak results do not stand in their true shares. Entries without a call were filed so in the source.

The assay has as its target D(2) dopamine receptor (Homo sapiens) (UniProt P14416). As to the kind of experiment: HTS Assay for Allosteric Antagonists of the Human D2 Dopamine Receptor: Primary Screen for Antagonists. Note: 0% is about no effect. Particulars: HEK293 TREx D2 cells, calcium flux, dopamine EC80; at 10 µM; stronger effect = higher value. The essentials: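 Calcium mobilization kinetics were recorded at 1 s intervals in tetracycline-induced HEK293 T-REx D2 cells, first for 180 s after compound addition and then 180 s after EC80 dopamine.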
Chain of UniProt P14416 (P14416 whole entry, looked up): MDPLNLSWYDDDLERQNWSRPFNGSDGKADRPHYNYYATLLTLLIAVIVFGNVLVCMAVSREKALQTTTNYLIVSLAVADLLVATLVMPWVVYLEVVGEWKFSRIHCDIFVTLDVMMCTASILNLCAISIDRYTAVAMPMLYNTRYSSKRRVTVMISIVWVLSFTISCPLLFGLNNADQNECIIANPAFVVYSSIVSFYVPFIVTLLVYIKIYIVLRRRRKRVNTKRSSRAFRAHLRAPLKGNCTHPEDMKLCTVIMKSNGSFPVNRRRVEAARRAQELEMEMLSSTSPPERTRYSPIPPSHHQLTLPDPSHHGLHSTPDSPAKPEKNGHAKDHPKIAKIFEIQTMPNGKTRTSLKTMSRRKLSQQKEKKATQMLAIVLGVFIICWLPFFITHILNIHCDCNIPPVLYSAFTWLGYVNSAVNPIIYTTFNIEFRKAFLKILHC
For orientation: A change in cytosolic calcium serves as a functional read-out for many receptors and channels.
By inhibition is commonly meant the relative decrease from the control value, in per cent. Take `Cc1ccc(C2=Nc3ccccc3NC(c3ccncc3)=N2)cc1`: the inhibition stood at 15.1%.

`CCNC(=O)Nc1ccc(-n2nc(C)c(C(=O)OCC)c2C)nc1`: the inhibition is active: 45%.

As to `CNS(=O)(=O)c1cn(CC(=O)Nc2ccc(C)cc2C)cc1S(=O)(=O)NC`, the inhibition is -8.03%.

`CCOC(=O)c1cc(-c2ccc(C)cc2)nn1Cc1ccccc1`: the inhibition is 11%.

`COc1ccc(NS(=O)(=O)c2ccc(NC(=O)N3CCCC3)cc2)cc1`: the inhibition was -2.59%.

In the case of `Cc1ccc(-c2cn3c(n2)sc2cc(C(=O)NCCCc4ccccc4)ccc23)cc1`, the inhibition is -20%.

As for `Cc1cc(OCCCSc2nc(-c3ccc(C(C)(C)C)cc3)nc3cc(=O)[nH]n23)ccc1Cl`, the inhibition was -2.1%.

Regarding `CCc1ccc(NC(=O)CSc2ccc3nnc(CCNS(=O)(=O)c4ccc(OC)cc4)n3n2)cc1`, the inhibition is -0.851%.

For the compound `Cc1ccccc1NC(=O)c1ccccc1NC(=O)c1ccccc1Cl`, the inhibition was -14.2%.

As for `COc1cccc(CNC(=O)CC(c2ccc(F)cc2)N2Cc3ccccc3C2=O)c1` (centres undefined), the inhibition is 1.2%.

As for `CCc1ccc(NC(=O)C2CCN(c3cc(C)nc4c(-c5ccc(Cl)cc5)c(C)nn34)CC2)cc1`, the inhibition was -1.69%.

In the case of `CC(C)c1ccc(NC(=O)CCCc2nc(-c3ccc(Cl)cc3)no2)cc1`, the inhibition was 15.1%.

As to `COc1cc(Cl)c(NC(=O)C2CCN(S(=O)(=O)c3c(C)noc3/C=C/c3ccccc3F)CC2)c(OC)c1`, the inhibition was found to be 0.487%.

With `CC1CCN(C(=O)Cn2cnc3c2c(=O)n(C)c(=O)n3C)c2ccccc2S1` (centres undefined), the inhibition is active: 45.2%.

Regarding `COc1cc(C2c3c(-c4ccccc4O)n[nH]c3C(=O)N2Cc2ccncc2)ccc1O` (centres undefined), the inhibition is 13.3%.

`CCCOc1ccc(NC(=O)CC2C(=O)N(c3ccccc3)C(=O)N2CCC(C)C)cc1` (centres undefined): the inhibition was -3.89%.

As for `CN1C(=O)CSc2ccc(NC(=O)NCc3ccccc3)cc21`, the inhibition was active: 30.2%.

As to `Cc1ccc(CN2CCN(c3ncccn3)CC2)c(C)c1`, the inhibition was active: 80%.

Regarding `CSc1ccc(CN2CCN(CC=C(C)C)C(CCO)C2)cc1` (centres undefined), the inhibition is active: 33%.

With `Cc1ccc2c(=O)cc(C(=O)Nc3c(C)n(C)n(-c4ccccc4)c3=O)oc2c1C`, the inhibition is -13.3%.

For `CCC(=O)NC1CC(=O)N(c2ccc3c(c2)OCCO3)C1` (centres undefined), the inhibition is -11.3%.

In the case of `COc1ccccc1NC(=O)Cn1c(=O)n(Cc2ccco2)c(=O)c2oc3ccccc3c21`, the inhibition is -1.47%.

For `O=C(CN1C(=O)C(c2ccc(F)cc2)=NC12CCCCCC2)Nc1ccc(F)c(Cl)c1`, the inhibition is 1.64%.

For the compound `COc1cc(-c2cc(OC)c3c(C)oc(C)c3c(=O)c2)ccc1OC(=O)c1ccccc1C`, the inhibition was -6.49%.

Turning to `COC(=O)C(C)Sc1nnc2cc(C)c3cc(C)cc(C)c3n12` (centres undefined), the inhibition was -19.9%.

On to `CN(C(=O)c1nc(-c2cccc(F)c2)n2c1CCCCC2)c1ccccc1F`, for which the inhibition stood at 9.93%.

As for `O=C(CCCn1c(=O)[nH]c2ccccc2c1=O)NCc1ccccc1Cl`, the inhibition is -2.87%.

For the compound `COc1cccc(NC(=O)CSc2nc3ccc(NC(=O)c4ccco4)cc3s2)c1`, the inhibition is -2.01%.

Regarding `CN1C(C(=O)NCc2cccc(C(F)(F)F)c2)CC2Cn3c(nc4cc5ccccc5cc43)C21` (centres undefined), the inhibition is active: 42.6%.

Regarding `CCc1nn(CC(=O)NCCCOC)c(=O)c2cc3occc3n12`, the inhibition stood at 1.43%.

As for `Cc1ccc(-c2nnc(Nc3ccc(Br)cc3)c3ccccc23)cc1S(=O)(=O)N1CCCCC1`, the inhibition was -6.92%.

As for `O=C(Cn1cnc2c(nc3n2CCCCC3)c1=O)Nc1ccc(F)cc1`, the inhibition is -2.55%.

In the case of `CCCN(CCC)CCCNC(=O)Cn1cnc2onc(-c3ccc(F)cc3)c2c1=O`, the inhibition was -9.02%.

As to `C/C(=N\NC(=O)c1cccnc1)c1cc(C)oc1C`, the inhibition was active: 33.5%.

For `CCN1C(=O)c2cccc3c(S(=O)(=O)Nc4ccc(O)c(C(=O)O)c4)ccc1c23`, the inhibition was determined as 2.6%.

With `CCOc1ccccc1C(=O)N(Cc1ccc(N(C)C)cc1)CC1CCCO1` (centres undefined), the inhibition turned out to be 8.96%.

As for `CC(C)(C)OC(=O)N1CCC(c2c(C(=O)N3CCc4ccccc4C3)cnn2-c2ccc(Cl)cc2)CC1`, the inhibition was -2.83%.

For the compound `CCS(=O)(=O)Nc1cc(-c2cn3ccc(C)cc3n2)ccc1C`, the inhibition was 3.8%.

For `CCCCNC(=O)CSc1nc2cc3c(cc2c(=O)n1CCCC(=O)NCc1ccc2c(c1)OCO2)OCO3`, the inhibition amounted to 8.44%.

On to `Cc1cc(C)cc(C(=O)N2CC(=O)Nc3ccc(C)cc3C2c2ccccc2)c1` (centres undefined), for which the inhibition is 13.6%.

Regarding `COc1ccc(NCc2ccccc2-c2nnc(-c3ccccc3)o2)cc1Cl`, the inhibition is -11.9%.

Take `Cc1cc(NC(c2nnc(-c3ccccc3)o2)c2ccccc2F)ccc1Br` (centres undefined): the inhibition was -7.28%.

Regarding `CCc1cccc2sc(N3CCN(C(=O)C4CC4)CC3)nc12`, the inhibition came to 9.63%.

With `Cc1ccc2cccc(NC(=O)c3cccc4ccccc34)c2n1`, the inhibition is -3.9%.

For `CCN(CC)c1ccc(-c2nc(-c3ccncc3)no2)cc1[N+](=O)[O-]`, the inhibition came to 1.31%.

Regarding `CCCCN(C(=O)c1cccc(S(=O)(=O)N2CCCCC2)c1)C1CCS(=O)(=O)C1` (centres undefined), the inhibition was determined as 19.2%.

Take `c1ccc(-c2ccccc2OCCN2CCCC2)cc1`: the inhibition is active: 81.9%.

As to `O=C(Nc1ccc(F)c(Cl)c1)N1CCN2CCCCC2C1` (centres undefined), the inhibition came to 2.22%.

For the compound `COc1ccc(C2CC(=O)c3c([nH]c(C(=O)OC4CCC(C)CC4)c3C)C2)cc1OC` (centres undefined), the inhibition worked out at 3.31%.

Consider `Cc1cccc(-n2c(=O)c3c(c4cc(C)ccc4n3C)n(CC(=O)Nc3ccccc3C(F)(F)F)c2=O)c1`, for which the inhibition was -9.35%.

Take `c1ccc(C(c2cccs2)c2c[nH]c3ccccc23)cc1` (centres undefined): the inhibition was -5.45%.

As to `Cc1ccc(-c2noc(CN(C3CCCCC3)S(=O)(=O)c3ccc(Cl)cc3)n2)cc1`, the inhibition was -8.68%.

For the compound `Cc1ccc(CNc2ncnc3c2c(-c2ccccc2)cn3-c2cccc(Cl)c2)cc1`, the inhibition was 6.24%.

`COc1ccccc1Cc1nc2ccccc2nc1SCC(=O)NCCc1ccccc1`: the inhibition was -28.4%.

Take `CCCCN(Cc1ccccc1)S(=O)(=O)c1ccc2c(c1)CC(C)N2C(=O)CC` (centres undefined): the inhibition was 23.2%.

For the compound `CCN(CC)CCCNC(=O)c1c(C)oc2ncnc(N3CCOCC3)c12`, the inhibition is -1.33%.

In the case of `CCS(=O)(=O)c1ccccc1C(=O)N(Cc1cccnc1)c1nc2cc(C)c(C)cc2s1`, the inhibition is 2.96%.

In the case of `CN(C(=O)CSc1nc2ccccc2n1CC(=O)NCc1ccc(F)cc1)c1ccc(F)cc1`, the inhibition was determined as 0.979%.

As to `CCOC(=O)Cn1cc2c(c1-c1ccc(Cl)cc1)c(=O)n(C)c(=O)n2C`, the inhibition is -7.67%.

Take `CCc1noc2nc(C)n(CC(=O)O)c(=O)c12`: the inhibition worked out at 0.08%.

Take `O=c1n(CCCN2CCN(c3cccc(Cl)c3)CC2)nc2ccccn12`: the inhibition is active: 52.4%.

Consider `Cc1c(C(=O)NCc2ccc(Cl)cc2)sc2nc3n(c(=O)c12)CCCC3`, for which the inhibition is -11.2%.

`CCOc1ccc(CNC(=O)c2ccc(NC(=O)c3nsc4ccccc34)cc2)cc1`: the inhibition is 5.34%.

Turning to `COC(=O)c1cc2occc2n1CC(=O)Nc1cccc(SC)c1`, the inhibition is 1.15%.

As for `O=S(=O)(NCC(c1ccco1)N1CCN(c2ccc(F)cc2)CC1)c1ccccc1` (centres undefined), the inhibition was -17.7%.

Regarding `CCn1c(=N)c(C(=O)NCc2cccnc2)cc2c(=O)n3cc(C)ccc3nc21`, the inhibition was -14%.

Take `COc1ccc(-c2nc(CSCC(=O)NCCc3ccc(C)cc3)c(C)o2)cc1OC`: the inhibition is 12.3%.

For `CCC(Cc1ccccc1)NC(=O)c1oc(=O)c2ccccc2c1-c1ccccc1` (centres undefined), the inhibition is -21.8%.

Regarding `COc1ccc2nc(NC(=O)c3ccc(S(=O)(=O)N4CCC(C)CC4)cc3)sc2c1`, the inhibition stood at 0.0941%.

As to `COC(=O)c1ccccc1NC(=O)c1noc2c1CSc1ccccc1-2`, the inhibition amounted to 1.11%.

With `CCc1ccc(NC(=O)N2CCN(Cc3cc(=O)n4nc(-c5ccccc5OC)sc4n3)CC2)cc1`, the inhibition is -0.441%.

Regarding `Cc1cccc(C)c1OCCCCn1c(C2CC(=O)N(c3ccc(F)cc3)C2)nc2ccccc21` (centres undefined), the inhibition was -12.2%.

In the case of `CCOC(=O)c1cccc(NC(=O)NCCc2c(C)nn(C)c2C)c1`, the inhibition came to 6.97%.

`Cn1c(=O)c2sccc2n2c(CCC(=O)N3CCN(c4ccccc4)CC3)nnc12`: the inhibition turned out to be 13.8%.

With `CCC(=O)Nc1sc2c(c1C(=O)Nc1ccccc1C)CCC(C)C2` (centres undefined), the inhibition is -8.55%.

With `Cc1ccc(-n2nc3ccc(NC(=O)c4cc5ccccc5o4)cc3n2)cc1`, the inhibition was found to be 19%.

Take `Cc1ccc(N2CC(c3nnc(NC(=O)c4ccco4)s3)CC2=O)cc1Cl` (centres undefined): the inhibition was found to be 16%.

Consider `O=S(=O)(c1ccc(Br)cc1)c1nnn2c1nc(NC1CCCCCC1)c1sccc12`, for which the inhibition amounted to 7.26%.

Take `CCOc1ccc(CNC(=O)CCC(=O)N2CC3CCCN3c3ccccc32)cc1` (centres undefined): the inhibition was 16%.

With `CCc1nc2cccnc2n1-c1ccc(CC(=O)Nc2ccccc2Cl)cc1`, the inhibition was 10.4%.

Take `CC1CCCN(CCCOc2ccccc2-c2ccccc2)C1` (centres undefined): the inhibition was active: 73.4%.

In the case of `COc1ccc(Cl)cc1NC(=O)c1cc(S(=O)(=O)N2CCC(C)CC2)cn1C`, the inhibition was found to be 12.3%.

Turning to `CCN1CCN(C(c2cccc(F)c2)c2c(O)cc(C)n(CCOC)c2=O)CC1` (centres undefined), the inhibition was found to be 6.73%.

In the case of `Cc1cccc(NC(=O)CSc2nc3c(oc4ccccc43)c(=O)n2Cc2ccco2)c1`, the inhibition is -4.92%.

Turning to `Cc1cc(NS(=O)(=O)c2ccc3nc(-c4ccccc4)[nH]c3c2)ccc1Br`, the inhibition was 17%.

On to `CC(C)C(=O)Nc1ccc2nc(SCC(=O)N3CCOCC3)sc2c1`, for which the inhibition is -0.574%.

Take `Cc1ccc(C)n1-c1nnc(N2CCC(C(=O)NCc3ccc(F)cc3)CC2)s1`: the inhibition stood at 11.2%.

As to `COc1ccccc1-c1noc(CSc2nnc(Cc3ccccc3)n2-c2ccc(C)c(C)c2)n1`, the inhibition was -2.37%.

Turning to `CCOC(=O)c1c(N)n(-c2ccccc2CC)c2nc3ccccc3nc12`, the inhibition was -4.84%.

`CC(C)c1nc2ccc(C(=O)NCc3ccc(N(C)C)cc3)cc2o1`: the inhibition is -16.4%.

Regarding `Cc1ccc(-n2nc3c(=O)n(CCCC(=O)NCCc4ccccc4)nc(C)c3c2C)cc1`, the inhibition amounted to 0.485%.

Take `Cc1cccc(CCNC(=O)CCS(=O)(=O)c2cc3c(cc2Cl)NC(=O)CO3)c1`: the inhibition came to 7.83%.

For the compound `COc1ccc(C)cc1Nc1nc2ccccc2c2nnc(C)n12`, the inhibition stood at 7.26%.

As for `CSc1ccc(C2c3[nH]c4ccccc4c3CCN2C(=O)CCc2ccccc2)cc1` (centres undefined), the inhibition is -6.96%.

For `COc1ccc(-c2cn3cccnc3n2)cc1NC(=O)c1c(F)cccc1F`, the inhibition turned out to be 10.7%.

`COc1cccc(CNC(=O)C2CCN(S(=O)(=O)c3ccc4c(ccn4C)c3)CC2)c1`: the inhibition is -17.5%.

Consider `COc1cc(Cl)c(C)cc1NC(=O)CCn1c(=O)c2cccn2c2cccnc21`, for which the inhibition came to 1.18%.

As to `CCn1c(=O)c2cc(C(=O)N(CCCOC(C)C)Cc3ccco3)sc2c2ccccc21`, the inhibition was found to be 6.05%.

Turning to `Cc1ccc(-c2sc(C(=O)Nc3ccc(Br)cc3)cc2CC(=O)O)cc1`, the inhibition is 7.8%.
